Results published in patent US5346913A, “N-iodopropargyl hydantoin compounds, compositions, preparation, and use as antimicrobial agents” (Rohm and Haas Company, priority 1992, dated 1994).

What was measured:
[1] = test system: Botrytis cinerea; assay: microbe, parasite or virus in culture; conditions: read-out: % Control BOC
[2] = test system: Septoria nodorum; assay: In-vitro plant disease test, SEP; conditions: Parastagonospora nodorum, read-out: % Control SEP
Excerpt: SEP Septoria nodorum (Ascomycete)
(§1) 1 week old: PYU, PHY, RHI; b. […] 3 weeks old: PSH, VEN.
(§2) There are two replications per treatment.
(§3) There are 2 replicates per treatment.

[3] = test system: Cochliobolus sativus; assay: In-vitro plant disease test, HEL; type: cell-based; conditions: Bipolaris sorokiniana, read-out: % Control HEL
[4] = test system: Pythium ultimum; assay: In-vitro plant disease test, PYU; conditions: Globisporangium ultimum, read-out: % Control PYU
Excerpt: PYU Pythium ultimum (Oomycete)
as §1, §2, §3

[5] = test system: Phytophthora capsici; assay: In-vitro plant disease test, PHY; conditions: read-out: % Control PHY
Excerpt: PHY Phytophthora capsici (Oomycete)
as §1, §2, §3

| SMILES | inhibition of growth at 25 ppm [1] | inhibition of growth at 25 ppm ([2]; 25 PPM) | inhibition of growth at 50 ppm ([2]; 50 PPM) | inhibition of growth at 50 ppm [3] | inhibition of growth at 25 ppm ([4]; 25 PPM) | inhibition of growth at 50 ppm ([4]; 50 PPM) | inhibition of growth at 50 ppm [1] | inhibition of growth at 25 ppm ([5]; 25 PPM) | inhibition of growth at 50 ppm ([5]; 50 PPM) |
| --- | --- | --- | --- | --- | --- | --- | --- | --- | --- |
| CC1(C)NC(=O)N(CC#CI)C1=O [Compound 12] | 0% |  |  |  |  |  |  |  |  |
| CC1(C)C(=O)N(CC#CI)C(=O)N1CC#CI [Compound 11] | 0% | 100% | 100% | 100% | 100% | 100% | 95% | 0% | 100% |
